The whole screen tested about 340,000 compounds, of which about 12,000 (3.5%) were called active. The inconclusive results got no clear call from the source; some entries with a clear call stand among them for comparison. Calls come from the whole dose curve; as a rule, active = well fitted inhibition curve with a large enough effect; inconclusive = small, poorly fitted or top-dose-only effect, or another doubt; inactive = no such curve, though single readings can be large or run the other way. Potencies of inconclusive entries are left out as doubtful fits.
Test: qHTS Assay for Inhibitors of Hepatitis C Virus (HCV)
Conditions: Huh7.5.1 HCVcc-Cre (HCVcc is cell-culture hepatitis C virus) infection, luciferase reporter, 44 h; series mostly up to 41.8 µM
In short: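 Luciferase read-out (15 sec integration) after a 15 min room-temperature substrate step quantifies HCVcc-Cre infection. Cells, 1,000 per well, had compound added 4 h post-plating, then virus at ~0.5 moi, and were cultured 44 h.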
Potency is the fitted concentration of half-maximal effect; tags give direction and shape of the fitted curve.

| SMILES | Potency |
| --- | --- |
| S=C(Nc1ccc(Cl)cc1)c1nc2ccccc2[nH]1 | active: 11.2 µM |
| Cc1ccc(C(=O)Nc2cccc(NC(=O)CN3CCCCC3)c2)cc1 | inconclusive [inhibitor, single point] |
| CCCCN(CC)CCCNC(=O)c1csc2c1CCCCC2 | active: 35.5 µM |
| O=C(Nc1ccccc1)C12CC3CC(C1)CC(n1cnc([N+](=O)[O-])n1)(C3)C2 | inactive |
| O=C(Nc1ccc(Cl)c(S(=O)(=O)N2CCOCC2)c1)c1ccc(OCC2CCCO2)cc1 (configuration not stated) | inconclusive [inhibitor, full curve] |
| Cc1ccccc1OCC(=O)Nc1ccccc1CO | inconclusive [inhibitor, single point] |
| O=C(NC1CCCCC1)N1CCCC(c2nc(-c3ccc(S(=O)(=O)N4CCCC4)cc3)no2)C1 (configuration not stated) | inconclusive [inhibitor, partial curve] |
| Nc1nnc(Cc2ccc(Cl)cc2Cl)s1 | inactive |
| CC1(NC(=O)Cc2csc(-c3ccc(Cl)cc3)n2)CCS(=O)(=O)C1 (configuration not stated) | inactive |
| CCCSC1=C(C#N)C(c2ccccc2C)CC(=O)N1 (configuration not stated) | inactive |
| CCC(=O)N1CCN(c2nc(C)nc3sc(C)c(C)c23)CC1 | inconclusive [inhibitor, single point] |
| COc1ccc(CNC(=O)C2(CC(=O)NC(C)(C)C)CCCC2)cc1 | inactive |
| Cc1ccc(S(=O)(=O)CCc2nc3ccccc3s2)cc1 | inactive |
| CNC(=O)COC(=O)c1cc2c(s1)CCCC2 | inactive |
| CCN1C(=O)[C@@H]2[C@@H](c3ccc(-c4ccc(Cl)c(Cl)c4)c(OC)c3)N3CCC[C@@]3(C(=O)OC)[C@@H]2C1=O | active: 10 µM |
| CSc1nc2cc3c(cc2n1C(=O)c1ccc(C)cc1)OCCO3 | inactive |
| C/C(=N\NC(=O)c1ccco1)c1cccc2ccccc12 | inconclusive [inhibitor, single point] |
| Cc1ccccc1-c1nc(S(=O)(=O)c2ccc(Br)cc2)c(NCc2cccnc2)o1 | active: 11.2 µM |
| CCCOc1ccc(/C=C/C(=O)OCC(=O)N(C)c2c(N)n(Cc3ccccc3)c(=O)[nH]c2=O)cc1OCC | inconclusive [inhibitor, single point] |
| Cc1cc(C)nc(SCc2csc(-c3ccccc3)n2)n1 | inconclusive [inhibitor, partial curve] |
| CC(=O)N1CCN(S(=O)(=O)c2cccc(C(=O)Nc3ccccc3N3CCOCC3)c2)CC1 | inactive |
| CC1CC(C)CN(C(=O)CNC(=O)c2sc3ccccc3c2Cl)C1 (configuration not stated) | active: 8.91 µM |
| CCNC(=S)N(Cc1ccco1)Cc1cc2cc3c(cc2[nH]c1=O)OCCO3 | inconclusive [inhibitor, single point] |
| Cc1ccc(-n2c(C)nc3cc(Cl)ccc3c2=O)nc1 | inactive |

| SMILES | Potency |
| --- | --- |
| O=C(Nc1cccnc1)c1ccc(COc2ccccc2Br)cc1 | inconclusive [inhibitor, single point] |
| CC(NC(=O)NC1CCCCC1)C(c1cccs1)N1CCN(c2ccccc2)CC1 (configuration not stated) | inconclusive [inhibitor, single point] |
| COc1ccc(-c2nc(-c3ccc(NC(=O)c4ccc(Br)o4)cc3)no2)cc1OC | inconclusive [inhibitor, partial curve] |
| NS(=O)(=O)c1ccc(NC(=O)CSc2nnc3n2CCCCC3)cc1 | inactive |
| CN=C1CN(O)C(c2ccccc2)=c2cc(Cl)ccc2=N1 | inconclusive [inhibitor, partial curve, poor fit] |
| O=C1NC(=O)N(c2ccccc2)C(=O)/C1=C/c1ccc(Sc2ccccc2)o1 | inactive |
| CCN(CC)c1ccc(NC(=O)Nc2cccc(C(C)=O)c2)cc1 | inconclusive [inhibitor, single point] |
| COC(=O)c1sccc1NS(=O)(=O)c1ccccc1[N+](=O)[O-] | inactive |
| O=C(NCCCN1CCOCC1)c1ccc2c(c1)N(Cc1ccccc1)C(=O)c1ccccc1S2 | inactive |
| O=C1C=CC(=O)N1c1ccc2ccccc2c1 | inactive |
| CCOC(=O)c1c(NC(=O)c2nn(CC)cc2Br)sc2c1CCCCC2 | inconclusive [inhibitor, full curve, poor fit] |
| Cc1cccc(N2CCN(C(=O)Cc3cn(C)c4ccccc34)CC2)c1C | inconclusive [inhibitor, single point] |
| CCS(=O)(=O)c1ccc(C(=O)Nc2cccc(Cl)c2)c(Cl)c1Cl | inconclusive [inhibitor, single point] |
| O=C(Nn1cnc2ccccc2c1=O)c1ccccc1[N+](=O)[O-] | inactive |
| O=C(NCc1ccccn1)c1c(-c2ccccc2)sc2ccccc12 | inconclusive [inhibitor, single point] |
| COc1ccc(-c2cc3nc(-c4ccccc4)cc(N4CCCC(O)C4)n3n2)cc1 (configuration not stated) | active: 6.31 µM |
| CCn1nccc1C(=O)Nc1ccc(Cl)c(Cl)c1 | inconclusive [inhibitor, single point] |
| COc1ccccc1NC(=O)Nc1nc(CC(=O)Nc2ccc(N(C)C)cc2)cs1 | inconclusive [inhibitor, full curve, poor fit] |
| COc1ccc(-c2ncc3ccccn23)cc1OC | inactive |
| CC1=C(C(=O)Nc2ccccc2)C(c2ccco2)C(C#N)=C(SCc2ccccc2)N1 (configuration not stated) | inconclusive [inhibitor, single point] |
| COc1cc(CNc2ccc3[nH]c(=O)[nH]c3c2)cc(Br)c1OCC(=O)NC(C)(C)C | inconclusive [inhibitor, partial curve] |
| CN(C(=O)c1cccc(NC(=O)Cc2ccc(NC(=O)C3CCCN(C(=O)C4CCCC4)C3)cc2)c1)C1CC1 (configuration not stated) | inconclusive [inhibitor, full curve] |
| Cc1cc(Oc2nc3ccccn3c(=O)c2/C=C(\C#N)C(=O)NC2CCS(=O)(=O)C2)ccc1Cl (configuration not stated) | inconclusive [inhibitor, single point] |

Reference: PubChem BioAssay AID651820 (National Center for Advancing Translational Sciences (NCATS), 2012)
